In the supplement of paper PMC11417369:
Some of the results follow.

system: PF3D7_0420300 AP2 domain 1 (GST-tagged); test: gcPBM binding intensity (ln(normalized median fluorescence intensity)); higher = stronger DNA binding
Procedure, shortened: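 GST-tagged P. falciparum DNA-binding domains produced in E. coli were incubated for 1 h on an Agilent 4 × 180k array of primer-extended double-stranded 36-bp intergenic genomic probes with negative controls. Binding intensity is the highest Masliner-normalised natural-log median intensity across replicate spots of either probe orientation, with bound protein detected by Alexa488 anti-GST antibody at 488 nm.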

Row | Sequence | gcPBM binding intensity (ln)
1 | ATATATATATATATATGTACATATATGTATACCTTA [XGTACX_site6791] | 9.1
2 | CAATAGTTCTTATGGGTGCAAACCACATATATATAA [GTGCAC_site9606] | 9.06
3 | TTTATTTATCTGTATACACACTTTAATGAAAAGTTG [CACACA_site5400] | 9.2
4 | ACAAATCTAAGATAGTGTACATTTATATATATATAT [XGTACX_site8740] | 9.26
5 | ATATATATATAATAAACACACACATATACATATATG [CACACA_site9145] | 9.92
6 | TATATATATATATAAGTGCATATAAAAATCGTTCGT | 9.42
7 | TTTATATACACACAGAAGAACAGAAATATTATATAT [TGCATGCA_negctrl_site483] | 9.55
8 | AATATAAATAAAAACACACACACACCCATATATATA [CACACA_site2267] | 10.1
9 | AAGGATATAACATACACACACACACCGATATATATA [CACACA_site6136] | 10.2
10 | TATTTTTTTTTTATATGTACATAATTTCAAATAAAT [XGTACX_site7747] | 9.01
11 | ATATATCATATTATAGTGCATTTATAATAATATTAT | 9.3
12 | TATTATCTGTAGTGTACACATATTATATAGTACTTT [CACACA_site4582] | 9.44
13 | AAAATTATATATTATTGTACATAAAATTTTGACATA [XGTACX_site4886] | 8.97
14 | ATAACGATATATGTGCGTACTTATAGAATAAGCAAA [XGTACX_site6743] | 9.34
15 | AAAAATATATATAACACACACATAATATATATATAT [CACACA_site2537] | 9.88
16 | TTATAACACATTACATGTACAAATATAAATATATTC [XGTACX_site6503] | 9.14
17 | AAAAAAAAAAAAAAATGTACAAAAATTACTATAAAA [XGTACX_site7683] | 9.05
18 | TTTTTTTTTGTTTACACACACAAAATATTATATGTA [CACACA_site2470] | 9.66
19 | AGGAAAAACTTGAATGCATGCGCACATTCTAGTTTG [TGCATGCA_site776] | 9.08
20 | TATTATTACGTAATATGTACATATATTTATACCACT [XGTACX_site5918] | 9.35
21 | AATATCTAAATAAAGTGTACTTACCTTATTAATTAT [XGTACX_site2276] | 9.17
22 | CCAATACATAGAAACTGTACATTATGCATTATACAC [XGTACX_site3531] | 9.33
23 | AATTTAATCCGTAATAAGAAAAGAAAAAAAAAAAGA [GTGCAC_negctrl_site129] | 9.39

Row | Sequence | gcPBM binding intensity (ln)
24 | ATTAGCTACAAACAAAGGCTACCTATAGCAAGAGGG [GTGCAC_negctrl_site33] | 9.48
25 | ATAATTTCTTTTACATGTACAAAATTTGCTTATATG [XGTACX_site5388] | 9.34
26 | TATATATATACATACATACACACATATATATATATA [CACACA_site4109] | 9.59
27 | ATATATATAATGTGAAGTACATTTTGTTTACATATT [XGTACX_site8405] | 9.23
28 | GGATTATTTATAGGAGTGCATACATATATATATATA [GTGCAC_site9454] | 9.14
29 | TTTATTAAATAATCTCTTTTTATTACATAATAATAA [XGTACX_negctrl_site382] | 8.84
30 | TTTACACTTTCCAATAGTACATATTAGAATAATTCT [XGTACX_site7734] | 9.11
31 | TAATTTATGGAATATGTGCACTTGCTGATCACTTTT [GTGCAC_site9843] | 9.22
32 | TATAGGTAAATGGACACACACATATTTATATTTATA [CACACA_site7683] | 9.82
33 | TGTAGTCTGGAGAAGAGTACATAGTATCTGGTAACA [XGTACX_site4944] | 9.06
34 | TTATTAGGTGTATAATGTACATATAATATATATATA [XGTACX_site3398] | 9.06
35 | TAATGTTTTTATATCACACACAAATATTAAATGATT [CACACA_site543] | 9.42
36 | ATAGAAGCATCACACTGTACATGGATGAACAGAAAA [XGTACX_site7311] | 9.44
37 | TATAATATAAGGATCACACACAAACAGACATATATA [CACACA_site557] | 10
38 | GATATTAAAATATGTAGTACACATATTATATCATAT [XGTACX_site4167] | 9.18
39 | TTAAAAATTATGGATACACACATATATATATATATT [CACACA_site2383] | 9.47
40 | ATAGTTCCTTTTAATACACACAAAAAAAAAAACATG [CACACA_site3415] | 9.5
41 | AATAAACATAAATACACACACAAAAAAAAAAACATA [CACACA_site4396] | 10.3
42 | TTTTTTTTTTTTTGATGTACTAAAAAAAATGAGCCT [XGTACX_site8535] | 8.78
43 | AAATATTACTACACTACATGCAGTTTTAGGTACACT [TGCATGCA_site42] | 9.21
44 | AAAAACAAAATATAATGTACACAATATATGTATATA [XGTACX_site2301] | 9.51
45 | TTTCATCTCGTCATTTCTTATATAACTATTTTATAC [CACACA_negctrl_site813] | 9.39
46 | ATTATTGTTTATTGATTTTTGTTAAAATAGGAAATT [GTGCAC_negctrl_site181] | 9.12

Row | Sequence | gcPBM binding intensity (ln)
47 | ATTATATTTATTAATATGTATATTTAATTATATTTA [XGTACX_negctrl_site376] | 9.1
48 | AAGTGTAAAAGTTACACACACAAACTTGTCATTTTT [CACACA_site4614] | 9.74
49 | CAAATTTTTTATTAAACACACAAACATATATATATA [CACACA_site5122] | 9.36
50 | TTCTTTATTATATGCACACGTACATAAAATATATAT [CACACA_site5157] | 9.36
51 | TATAAAAAATATATATATAATATTATATATATATAT [TGCATGCA_negctrl_site260] | 8.93
52 | ATTTTTTTTTTTTTTTGTACGAATAATATGTATGAA [XGTACX_site5318] | 9.01
53 | AAAGGAGGGAATTTTTCTAGGTGTGGAGTGCTACTC [XGTACX_negctrl_site63] | 9.44
54 | TATATATATATATGTAGTACCTATAATATTAAATAC [XGTACX_site6118] | 9.19
55 | AAGAAAAGAAACAAAAAAAAAAAGAAATAAAAGGAA [TGCATGCA_negctrl_site171] | 9.73
56 | AATTTTTTTTTTTTTTTTTTTTATATATGTGTGTGT [XGTACX_negctrl_site129] | 9.74
57 | TATGAATGGTTAAGTACACACATATTAATATAGGTA [CACACA_site7606] | 9.57
58 | ATCAATAAATAAAATGTGCACATAATATATTAATAC | 9.57
59 | TTGAAGAAAAAAAAATGTACATAAAAAATATATATG [XGTACX_site428] | 9.23
60 | CTTATAAATAAAAGAAGTACATGTTAGTTCAAGTTA [XGTACX_site4183] | 9.24
61 | TTTTTGTTTCATAAATGTACAAAAACAAACATATTT [XGTACX_site5281] | 8.88
62 | TTATATGTATATATAGTGCAGAACAAAAGATTATAT [GTGCAC_site9599] | 9.37
63 | TCGTCTCAATAATTATAATAAAAAAATTCCTAAGTC [CACACA_negctrl_site338] | 9.06
64 | ATTTTCCTATTTAGTAGTACTTTTTTCTTTTTTTAA [XGTACX_site5260] | 9.58
65 | TTATATTTCACAAATGTGCACAGATACATATATATA | 9.28
66 | AAAAAAAAATAGAAATGTACAAATTGTAATAATTCC [XGTACX_site6182] | 9.34
67 | GAGCATTACACATATACACACATATATATAAACATA [CACACA_site5515] | 9.7
68 | TATAATAATATTTATTGTACGATTAGATTAATTCAT [XGTACX_site612] | 9.08
69 | CATATGATATTATTTTGTACTTATTACAAATATGAA [XGTACX_site7929] | 8.94

Row | Sequence | gcPBM binding intensity (ln)
70 | ATATATATATATATTTGTACATAATATATATATGCA [XGTACX_site1795] | 9.11
71 | AAACAATTTAGACATACACACAAAAATAATATTATA [CACACA_site384] | 9.88
72 | CACGAAAATTTGTAGAGTACATATATAATTAATATA [XGTACX_site3808] | 9.15
73 | ATATATATATATATATGTACATATTGTATTATTCAC [XGTACX_site6511] | 9.19
74 | ATTAAAAAAAAGCTCATCGAAATGTCTTATATAAAT [CACACA_negctrl_site912] | 9.17
75 | CAATTAAACAATTAAACATGCAAAATGATATAATAA [TGCATGCA_site240] | 9.46
76 | AAATTAAAATATAATACACACATAAAAAAAAAATCA [CACACA_site5918] | 9.85
77 | GTATATGAATGTTCATGTACATAATAAAATATATAA [XGTACX_site250] | 9.14
78 | ATATATATATATAAAGTGCAAAAATGAAAGTAAGAC [GTGCAC_site9850] | 10
79 | ATAAAATATAAAAACGCACACAATTATAAGGGTGTA [CACACA_site177] | 9.71
80 | ATGTTCTATAAATATGAACACACGACATATTATTTA [CACACA_site1799] | 9.12
81 | TATATTTAATTACATGAACACACATTATATATTTTT [CACACA_site8969] | 9.34
82 | TGTAGTATCAATTTTTGTACATAACACATATGTATA [XGTACX_site613] | 9.12
83 | ATATATATATATATATGTACATATTATTCTCATTGT [XGTACX_site6259] | 9.13
84 | AAAACAAACACATTTACACACATAAATAAATCAATT [CACACA_site4122] | 9.81
85 | TTTATTTTTCCATATGCACACACACCGTATATATAA [CACACA_site8293] | 9.98
86 | AAAATATAAATATATTTGAACATGGATCAAATGTAA [GTGCAC_negctrl_site626] | 9.18
87 | TATTCATTCTATAAAACACACAAATATTTTTGTATC [CACACA_site666] | 9.26
88 | ATACATACATACATACGTACATATGTATATATATAT [XGTACX_site8498] | 9.38
89 | AGTATACTCAAACACACACACACAAAAAAAAAAAAA [CACACA_site4398] | 10
